Reference: patent US20150299314A1 (TORAY INDUSTRIES, published 2015)

Biological target: T1, CAPRIN-1 protein expressed on the cell surface of human cancer cells (human, UniProt Q14444 2-709)
T1 sequence (looked up): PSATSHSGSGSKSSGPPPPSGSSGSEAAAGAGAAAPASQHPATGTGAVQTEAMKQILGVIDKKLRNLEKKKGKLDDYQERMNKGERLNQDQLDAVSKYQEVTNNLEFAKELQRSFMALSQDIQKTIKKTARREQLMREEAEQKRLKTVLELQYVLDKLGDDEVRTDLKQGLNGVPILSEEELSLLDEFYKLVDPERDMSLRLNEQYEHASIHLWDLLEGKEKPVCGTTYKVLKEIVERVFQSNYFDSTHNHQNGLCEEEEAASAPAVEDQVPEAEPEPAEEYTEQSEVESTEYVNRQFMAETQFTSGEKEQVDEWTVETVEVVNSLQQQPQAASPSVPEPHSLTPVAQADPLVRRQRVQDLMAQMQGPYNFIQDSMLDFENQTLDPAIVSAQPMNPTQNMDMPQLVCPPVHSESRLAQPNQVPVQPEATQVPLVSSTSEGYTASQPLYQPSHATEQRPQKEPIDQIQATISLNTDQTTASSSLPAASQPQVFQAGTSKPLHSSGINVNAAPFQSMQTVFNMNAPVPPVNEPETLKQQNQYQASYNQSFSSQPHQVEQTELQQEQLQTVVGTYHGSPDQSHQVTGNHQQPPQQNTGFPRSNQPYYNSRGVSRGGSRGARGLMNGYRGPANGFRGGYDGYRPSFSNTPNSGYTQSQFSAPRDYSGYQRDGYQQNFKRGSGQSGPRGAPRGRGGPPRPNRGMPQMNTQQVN
Experiment: cell-based or functional assay

B1: human-mouse chimeric anti-CAPRIN-1 antibody #33 (antibody, human IgG1, kappa)
heavy: GPGLVKPSQSLSLTCSVTGYSITSGYYWNWIRQFPGNKLEWMGYISYDGSNNYNPSLKNRISITRDTSKNQFFLKLNSVTTEDTATYYCATGMAWFAYWAKDSVTPP[human IgG1 constant region skipped]
light: SPSSLAVSVGEKVTMS[about 80 residues skipped][about 120 residues skipped]
- ADCC activity (cytotoxicity, 51Cr release) on TGBC14TKB, antibody 5 ug/mL, human NK cells: ≥ 20%
